Laboratory results reported in article PMC4718513, “C-Terminal Auto-Regulatory Motif of Hepatitis C Virus NS5B Interacts with Human VAPB-MSP to Form a Dynamic Replication Complex” (PLoS ONE, 2016).

Assays:
[1] = target: T1, EphA5 ligand binding domain (LBD) (human, UniProt P54756 60-238); assay: NMR titration; 1H-15N HSQC of 15N-labelled VAPB protein (50 uM) with unlabelled NS5B or Eph protein added at different molar ratios (increment 0.5 for C-linker and Eph); 10 mM phosphate buffer pH 6.8, 25 C, 800 MHz; CSD tracings fitted with a one binding site model for residue-specific Kd; conditions: both partners purified
T1 construct: Cloned into pET32a; also called EphA5 LBD

[2] = target: T2, EphA2 ligand binding domain (LBD) (human, UniProt P29317 28-206); assay: as above; conditions: both partners purified
T2 construct: Cloned into pET32a; also called EphA2 LBD

B1: VAPB-MSP domain, MSP([…]) (domain or fragment)
chain: not shown
modifications: 15N-labelled
notes: human VAPB, N-terminal major sperm protein (MSP) domain, […]; amplified from HeLa cell cDNA library; Cloned into a modified pET32a vector; source: 15N-labelled in M9 medium
In the case of B1, the Kd [1] is reported as 66.2 µM and the Kd [2] is reported as 10.3 µM.
